Measured values published in PubChem BioAssay (NCATS).
The list shows a part of the results. These are further read-outs of the screen, such as a control signal, another cell line or another target. No call is given for them. Most of these compounds were active or inconclusive in the main read-out, so they are no random draw. Words in brackets tell the shape of the fitted curve; partial curves, single points and poor fits give uncertain potencies.

target: Histamine N-methyltransferase (Homo sapiens) (UniProt P50135); assay: Confirmatory Screen for Target Class Profiling of Small Molecule Inhibitors of Methyltransferases (AID 1745852); conditions: MTase-Glo luminescence, SAH detection, recombinant enzyme; measured here: HNMT inhibition potency;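 further: inhibitor potency for blocking SAH production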
Chain of UniProt P50135 (P50135 whole entry, looked up): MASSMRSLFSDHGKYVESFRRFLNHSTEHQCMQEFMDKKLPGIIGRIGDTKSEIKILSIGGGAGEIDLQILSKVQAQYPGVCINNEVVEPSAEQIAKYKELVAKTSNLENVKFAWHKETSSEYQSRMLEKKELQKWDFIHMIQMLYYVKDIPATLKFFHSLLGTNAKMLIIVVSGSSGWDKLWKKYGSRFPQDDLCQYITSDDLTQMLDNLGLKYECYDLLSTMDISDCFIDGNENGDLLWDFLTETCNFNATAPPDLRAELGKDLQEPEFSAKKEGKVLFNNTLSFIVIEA
Tags describe the fitted curve by direction and shape.

SMILES | IC50
CCCCN1C(=O)c2cc(C(=O)NCCc3ccccc3Cl)nn2CC1(C)C(=O)NC1CCCC1 (stereo not drawn) | 15.2 µM [falling, partial curve]
COc1ccc(-c2cc(C(=O)NCc3cccnc3)c3c(c2)N(C)CCO3)cc1OC | 31.2 µM [falling, partial curve]
Cc1cnc(CCNC(=O)c2n[nH]c(=O)c3ccccc23)n1C1CCCCC1 | 5.41 µM [falling, partial curve]
CCN(CC)CCCNC(=O)CCCc1nnc2n3nc(-c4ccccc4)nc3c3ccccc3n12 | 15.2 µM [falling, partial curve]
CCCCNC(=O)c1cccc(-c2cc(N3CCN(C)CC3)nc(N)n2)c1 | 6.07 µM [falling, partial curve]
O=C(Cn1ccc2cc(S(=O)(=O)N3CCCCC3)ccc21)NCCCN1CCCCC1 | 17.1 µM [falling, partial curve]
O=C(N[C@H](C1CCNCC1)C1CC(O)C1)c1ccc2nccnc2c1 (stereo partly drawn) | 21.5 µM [falling, partial curve]
c1cc(NCCc2c[nH]c3ccccc23)cc(Nc2ccncc2)c1 | 0.341 µM [falling, full curve]
Cn1c(COc2cccc(CN3CCCC3)c2Cl)nnc1C1CC(N)C1 (stereo not drawn) | 12.1 µM [falling, full curve]
COc1cc(/C=N\NC(=O)c2ccc3c(c2)OCO3)ccc1OCc1ccccc1 | 1.21 µM [falling, full curve]
Cn1cnc(CN2CCNc3cc(Nc4ccccc4)ncc3C2)c1 | 9.87 µM [falling, partial curve]
CCN(CCc1nc2ccc(C)cc2[nH]1)C(=O)c1ccccc1C1CCNC1 (stereo not drawn) | 3.04 µM [falling, full curve]
COc1cc(N2CCC(N3CCN(C)CC3)CC2)ccc1Nc1ncc(Cl)c(-c2c[nH]c3ccccc23)n1 | 13.6 µM [falling, partial curve]
CCN(CC)c1ccc2c(O)c(C=Nc3ccc(CC(=O)O)c(-c4c5c(nc6ccccc46)CCC(C(=O)NN)C5)c3)c(=O)oc2c1 (stereo not drawn) | 7.64 µM [falling, partial curve]
CCn1cc(CN2CCCC23CCN(c2cc(C)nc4ccccc24)CC3)c(C)n1 | 21.5 µM [falling, partial curve]
O=C(CCc1nnc2n(Cc3ccc(Cl)cc3)c(=O)c3ccccc3n12)NCCN1CCCC1 | 12.1 µM [falling, partial curve]
COc1cc2nc(N3CCCCC3)nc(NC3CCN(C)CC3)c2cc1OC | 7.69 µM [falling, partial curve]
CN(C)CCNC(=O)c1ccnc(-c2nnc3ccc(N(C)c4ccccc4)nn23)c1 | 31.2 µM [falling, partial curve]
Cn1c(C(=O)NCCN2CCCCC2)cc2c1CCN(Cc1cccc(F)c1)C2 | 19.2 µM [falling, partial curve]
CCN(CC)CCNC(=O)CCCc1nnc2n3nc(-c4ccccc4)nc3c3ccccc3n12 | 6.81 µM [falling, full curve]
O=C(CCc1nnc2n(CCc3ccccc3)c(=O)c3ccccc3n12)N1CCC(N2CCCCC2)CC1 | 3.41 µM [falling, full curve]
c1ccc(-c2cc3c(cn2)NCCN(CC2CC2)C3)cc1 | 27.8 µM [falling, partial curve]
O=C(O)Cn1nnc(-c2ccc(CN(CCCCOc3ccc(CN4CCCC4)cc3)CCc3ccccc3)cc2)n1 | 12.1 µM [falling, partial curve]
Cc1noc(C)c1-c1cnc(Nc2ccncc2)c2c1CCO2 | 31.2 µM [falling, partial curve]
COCCN(C)Cc1ccc2nc3sc(C(=O)N(C)C4CCCCC4)cn3c2c1 | 5.41 µM [falling, full curve]
Cc1cc(Nc2ccc(NC(=O)c3ccc(Nc4ccnc5ccccc45)cc3)cc2)nc(N)n1 | 0.341 µM [falling, full curve]
COC(=O)[C@H](Cc1cccc(C(=N)N)c1)[C@@H](C)NC(=O)c1ccc(-c2cc[n+]([O-])cc2)cc1 | 17.1 µM [falling, partial curve]
CN(CCc1ccc(Nc2ncc(-c3cccnc3)s2)cc1)Cc1ccccc1 | 13.6 µM [falling, partial curve]
